Measured values taken from the supplement of paper PMC9046079.
± gives the standard deviation of the averaged measurements. This is one part of the list.

How the values were obtained:
[1] = system: murine small intestinal organoids (ENR+CD Paneth differentiation); assay: cellular ATP (CellTiter-Glo 3D) relative to plate median (log10 fold change); higher = more viable cells; conditions: 6 d
[2] = system: murine small intestinal organoids (ENR+CD Paneth differentiation); assay: carbachol-stimulated secreted lysozyme activity relative to plate median (log10 fold change); higher = more Paneth cell lysozyme secretion; conditions: 6 d, carbachol 10 µM
[3] = system: murine small intestinal organoids (ENR+CD Paneth differentiation); assay: basal (non-stimulated) secreted lysozyme activity relative to plate median (log10 fold change); higher = more Paneth cell lysozyme secretion; conditions: 6 d
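For basal (non-stimulated) secreted lysozyme activity relative to plate median in this document: ISC-enriched organoid precursors grown as 2.5D pseudo-monolayer on Matrigel, compound given on day 0 and day 3, plate values LOESS-normalized before median fold change, three murine donors.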
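For cellular ATP (CellTiter-Glo 3D) relative to plate median in this document: 2.5D pseudo-monolayer culture of ISC-enriched organoids partly embedded atop Matrigel, compound added on day 0 and again on day 3, per-plate LOESS correction before median fold change.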

SMILES	cellular ATP (log10) ([1]; 0.08 µM)	cellular ATP (log10) ([1]; 0.4 µM)	cellular ATP (log10) ([1]; 2 µM)	cellular ATP (log10) ([1]; 10 µM)	carbachol-stimulated secreted lysozyme activity (log10) ([2]; 0.08 µM)	carbachol-stimulated secreted lysozyme activity (log10) ([2]; 0.4 µM)	carbachol-stimulated secreted lysozyme activity (log10) ([2]; 2 µM)	carbachol-stimulated secreted lysozyme activity (log10) ([2]; 10 µM)	basal (log10) ([3]; 0.08 µM)	basal (log10) ([3]; 0.4 µM)	basal (log10) ([3]; 2 µM)	basal (log10) ([3]; 10 µM)
CCOC(=O)c1ccc(N2NC(=O)C(=Cc3ccc([N+](=O)[O-])o3)C2=O)cc1	0.204 ± 0.28	0.302 ± 0.35	0.0421 ± 0.43	-0.028 ± 0.48	0.136 ± 0.045	0.0288 ± 0.018	-0.028 ± 0.16	-0.122 ± 0.17	0.164 ± 0.063	-0.00354 ± 0.077	0.0301 ± 0.14	0.00153 ± 0.18
NCC(=O)Nc1ccc(-n2nc(C(F)(F)F)cc2-c2ccc3c(ccc4ccccc43)c2)cc1	0.205 ± 0.15	0.114 ± 0.36	0.233 ± 0.13	0.0776 ± 0.34	0.144 ± 0.031	0.197 ± 0.03	0.0447 ± 0.032	-0.187 ± 0.03	0.0868 ± 0.037	0.0328 ± 0.039	0.0528 ± 0.041	-0.0485 ± 0.036
COCCOc1ccc2c(c1)ncn2-c1ccc2cccc(N3CCC(N)CC3)c2n1	0.0695 ± 0.15	0.186 ± 0.21	0.00768 ± 0.13	-0.258 ± 0.38	0.162 ± 0.24	-0.0444 ± 0.0051	0.113 ± 0.13	-0.155 ± 0.098	0.0314 ± 0.04	0.0663 ± 0.044	0.102 ± 0.087	-0.0583 ± 0.075
C=C[C@@]1(C)CC(=O)[C@]2(O)[C@@]3(C)[C@@H](O)CCC(C)(C)[C@@H]3[C@H](O)[C@H](OC(C)=O)[C@@]2(C)O1 [Forskolin]	-0.213 ± 0.13	-0.175 ± 0.08	-0.33 ± 0.34	-0.119 ± 0.22	0.0708 ± 0.057	0.365 ± 0.18	0.164 ± 0.3	0.22 ± 0.066	-0.00661 ± 0.11	0.159 ± 0.12	0.191 ± 0.21	0.219 ± 0.13
COc1ccc(C(=O)Nc2sc3c(c2C(N)=O)CCCC3)cc1OC	0.176 ± 0.062	0.263 ± 0.13	0.0358 ± 0.14	-0.139 ± 0.51	0.115 ± 0.19	0.106 ± 0.11	0.0747 ± 0.047	0.043 ± 0.079	0.0709 ± 0.19	0.114 ± 0.02	0.0513 ± 0.072	0.00735 ± 0.023
N#Cc1ccc(C(c2ccc(C#N)cc2)n2cncn2)cc1 [Letrozole]	-0.0129 ± 0.11	0.101 ± 0.11	0.0989 ± 0.17	0.171 ± 0.076	-0.0217 ± 0.031	0.162 ± 0.16	0.000221 ± 0.075	-0.031 ± 0.17	0.0655 ± 0.056	0.128 ± 0.052	0.00936 ± 0.091	-0.00782 ± 0.13
NC(=O)c1ncn([C@@H]2O[C@H](CO)[C@@H](O)[C@H]2O)c1N [Acadesine]	0.0942 ± 0.15	0.173 ± 0.22	-0.00507 ± 0.11	0.0761 ± 0.085	-0.0288 ± 0.13	-0.00214 ± 0.019	0.116 ± 0.098	-0.122 ± 0.07	0.0227 ± 0.058	-0.0158 ± 0.042	0.0161 ± 0.05	-0.0697 ± 0.036
CC(C)(C)n1nc(-c2ccc(Cl)cc2)c2c(N)ncnc21	-0.701 ± 1.2	0.0385 ± 0.18	-0.423 ± 0.79	-0.384 ± 0.11	0.128 ± 0.0024	0.0172 ± 0.044	0.0651 ± 0.15	0.0189 ± 0.071	0.00247 ± 0.063	0.051 ± 0.097	0.102 ± 0.14	0.00463 ± 0.11
CC(C)N(CCCNC(=O)Nc1ccc(C(C)(C)C)cc1)C[C@H]1O[C@@H](n2cc(Br)c3c(N)ncnc32)[C@H](O)[C@@H]1O	-0.0196 ± 0.2	-0.167 ± 0.16	0.0789 ± 0.17	-0.102 ± 0.28	0.14 ± 0.16	-0.227 ± 0.25	0.03 ± 0.064	0.0255 ± 0.051	0.0882 ± 0.054	-0.0134 ± 0.13	0.111 ± 0.13	0.0805 ± 0.023
Cc1ccc(S(=O)(=O)NC(=O)NN2CC3CCCC3C2)cc1 (centres undefined) [Gliclazide]	0.162 ± 0.15	0.0538 ± 0.12	0.00829 ± 0.24	-0.0917 ± 0.17	0.0591 ± 0.011	0.125 ± 0.15	-0.0676 ± 0.12	-0.0332 ± 0.17	0.036 ± 0.016	0.0319 ± 0.1	0.104 ± 0.3	-0.0348 ± 0.081
CO[C@H]1C[C@@H]2CC[C@@H](C)[C@@](O)(O2)C(=O)C(=O)N2CCCC[C@H]2C(=O)O[C@H]([C@H](C)C[C@@H]2CC[C@@H](OP(C)(C)=O)[C@H](OC)C2)CC(=O)[C@H](C)/C=C(\C)[C@@H](O)[C@@H](OC)C(=O)[C@H](C)C[C@H](C)/C=C/C=C/C=C/1C [Ridaforolimus (Deforolimus, MK-8669)]	0.443 ± 0.34	-0.156 ± 0.43	-0.339 ± 0.64	-0.707 ± 1.1	0.0543 ± 0.036	-0.131 ± 0.23	-0.146 ± 0.34	-0.128 ± 0.3	0.0128 ± 0.013	-0.0065 ± 0.25	-0.0322 ± 0.23	-0.09 ± 0.21
COc1cc(-c2ncn(/C=C\C(=O)OC(C)C)n2)cc(C(F)(F)F)c1	0.116 ± 0.23	0.104 ± 0.22	-0.995 ± 0.74	-0.855 ± 0.92	-0.0379 ± 0.097	0.284 ± 0.13	-0.4 ± 0.071	-0.158 ± 0.37	-0.00566 ± 0.053	0.0971 ± 0.046	-0.209 ± 0.06	-0.0855 ± 0.22
